# Among all 310,000 compounds or so, about 14,000 (4.5%) showed an effect of 50% or more. The effect is printed as a negative number. The list shows a part of the results.
# Target: human ether-à-go-go-related gene (hERG) potassium channel (human, UniProt Q12809)
# Assay: primary screen, population patch clamp on CHO cells stably expressing hERG
# 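Also: peak tail current of the secondary pulse compared with the same well before compound.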
# human ether-à-go-go-related gene (hERG) potassium channel, sequence (Q12809 whole entry, looked up): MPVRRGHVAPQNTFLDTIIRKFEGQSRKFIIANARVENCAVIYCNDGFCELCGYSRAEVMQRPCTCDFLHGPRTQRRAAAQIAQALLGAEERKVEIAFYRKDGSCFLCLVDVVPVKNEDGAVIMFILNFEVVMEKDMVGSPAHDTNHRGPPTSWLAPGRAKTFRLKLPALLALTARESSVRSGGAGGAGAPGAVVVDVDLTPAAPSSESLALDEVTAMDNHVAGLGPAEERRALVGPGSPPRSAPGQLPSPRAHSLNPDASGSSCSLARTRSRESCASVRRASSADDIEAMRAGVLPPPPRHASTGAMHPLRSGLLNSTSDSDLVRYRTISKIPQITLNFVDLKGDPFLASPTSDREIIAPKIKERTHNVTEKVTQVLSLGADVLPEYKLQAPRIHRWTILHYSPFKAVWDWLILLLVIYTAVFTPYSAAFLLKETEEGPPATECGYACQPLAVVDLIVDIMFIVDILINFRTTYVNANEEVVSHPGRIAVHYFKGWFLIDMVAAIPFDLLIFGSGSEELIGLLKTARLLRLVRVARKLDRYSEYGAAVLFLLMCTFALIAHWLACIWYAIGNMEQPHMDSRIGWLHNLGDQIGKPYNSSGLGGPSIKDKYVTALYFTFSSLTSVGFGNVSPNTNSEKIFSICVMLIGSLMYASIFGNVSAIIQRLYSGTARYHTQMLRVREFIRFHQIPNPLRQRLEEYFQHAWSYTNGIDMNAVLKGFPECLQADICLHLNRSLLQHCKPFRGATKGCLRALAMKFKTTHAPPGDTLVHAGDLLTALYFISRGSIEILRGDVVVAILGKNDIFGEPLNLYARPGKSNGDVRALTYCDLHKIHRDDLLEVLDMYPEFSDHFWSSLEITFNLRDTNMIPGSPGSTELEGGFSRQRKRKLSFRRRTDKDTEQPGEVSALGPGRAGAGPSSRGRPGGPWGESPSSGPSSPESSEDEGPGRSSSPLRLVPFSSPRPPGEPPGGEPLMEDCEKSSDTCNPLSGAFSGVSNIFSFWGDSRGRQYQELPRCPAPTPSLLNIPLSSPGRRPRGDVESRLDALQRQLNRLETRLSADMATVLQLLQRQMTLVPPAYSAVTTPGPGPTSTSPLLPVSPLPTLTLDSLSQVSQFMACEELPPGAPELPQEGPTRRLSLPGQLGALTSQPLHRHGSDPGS
row,SMILES,"hERG current change (%, negative = inhibition) at 10uM [%]"
1,COCCNC(=O)c1cc(-c2ccccc2)nn1CC1CC(c2cccc([N+](=O)[O-])c2)=NO1 (stereo not drawn),-50.6
2,Cc1ccc(S(=O)(=O)N2CCCCC2)cc1C(=O)N1CCN(CCO)CC1,3.41
3,COc1ccc(-n2nc(C(=O)NCC(=O)Nc3cc(OC)c(OC)c(OC)c3)c3ccccc3c2=O)cc1Cl,10
4,CC(C)c1cc(NC(=O)CSc2nnc(-c3ccccc3F)n2C)on1,-2.61
5,CN=C(Nc1ccc(C(=O)OC)s1)c1ccc(Cl)cc1,-5.47
6,Cc1cccn2cc(-c3ccc(S(=O)(=O)N4CCOCC4)cc3)nc12,-13.8
7,O=C(NC1=NCCS1)c1cccc(N2C(=O)c3ccccc3C2=O)c1,22.2
8,CCN(CCn1cccn1)C(=O)CC1C(=O)NCCN1Cc1cccc(OC)c1OC (stereo not drawn),-2.93
9,CCCCNC(=O)c1ccc(N2CCOCC2)c(NS(=O)(=O)c2ccc(OC)cc2)c1,-40.4
10,COc1ccc(/C(C)=N/NC(=S)Nc2cc(C)ccc2C)cc1,-41
11,COc1cc(N)c(C(=O)c2nccc3cc(OC)c(OC)cc23)cc1OC,12.2
12,CCOC(=O)C(O)(CC(=O)Nc1cc(F)ccc1C)C(F)(F)F (stereo not drawn),15.1
13,O=[N+]([O-])c1ccc(S(=O)(=O)Nc2cccc(-c3ccc(N4CCOCC4)nn3)c2)cc1,-20.3
14,Cc1ccccc1-c1cc(C(=O)NCc2ccc3c(c2)OCO3)n(CC2CC(c3cccnc3)=NO2)n1 (stereo not drawn),-20.8
15,CCc1nn(CC(=O)N(C)C2CCCCC2)c(=O)c2cc3cc(C)ccc3n12,11.7
16,Cc1ccc(S(=O)(=O)N2CCC(C(=O)Nc3nnc(-c4ccco4)s3)CC2)cc1,18.9
17,COc1ccc2nc(N)sc2c1,7.47
18,O=C(NCCc1ccccn1)c1cccnc1Oc1ccc(Cl)cc1,-3.49
19,CC1=C(C#N)S(=O)(=O)C(C#N)C(c2ccccc2)C1 (stereo not drawn),6.92
20,O=C1C2CC=CCC2C(=O)N1Cc1ccccc1Cl (stereo not drawn),-2.93
21,Cc1cc(C)nc(SCC(=O)N2CCOCC2)n1,5.22
22,COc1ccc(-c2[nH]ncc2CNCC(C)(C)N2CCOCC2)cc1F,10.1
23,CCN(CC)C(=O)CN1CCC(c2nc3cc(C)c(C)cc3[nH]2)CC1,-15.7
24,N#CCCn1cc(C(=O)NCc2ccccc2)c(-c2ccc3c(c2)OCCO3)n1,-19.9

# Reference: article PMC4336329 (PLoS ONE, 2015)
